Experimental data published in the supplement of paper PMC12217912.
The list shows a part of the results. The full chains were built here from the parent and the listed change. Values near 0.05 are background.

B1: TEV protease; numbered along this chain (parent)
chain: MGESLFKGPRDYNPISSSICHLTNESDGHTTSLYGIGFGPFIITNKHLFRRNNGTLVVQSLHGVFKVKDTTTLQQHLVDGRDMIIIRMPKDFPPFPQKLKFREPQREERICLVTTNFQTKSMSSMVSDTSCTFPSGDGIFWKHWIQTKDGQCGSPLVSTRDGFIVGIHSASNFTNTNNYFTSVPKNFMELLTNQEAQQWVSGWRLNADSVLWGGHKVFMVKPEEPFQPVKEATQL

Variants of: B1
Test: raw area under fraction-flipped curve 0-4 h after induction (AUC4h, not background-subtracted), DNA-recorder readout of cleavage of the substrate (dimensionless); higher = more cleavage of the substrate by the protease variant
Conditions: temperature: 34 °C; time window: 0-4 h after rhamnose induction
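Note: Bxb1 expression induced with 0.2% (w/v) L-rhamnose at OD600 near 0.5, cultures sampled hourly, flipped fraction per protease–substrate barcode pair counted by paired-end Illumina sequencing.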

| Variant | area with substrate ENLYFQC | area with substrate ENLYFQG | area with substrate ENLYFQI | area with substrate ENLYFQM | area with substrate ENLYFQP | area with substrate ENLYFQS | area with substrate ENLYFQW | area with substrate ENLYFQD | area with substrate ENLYFQK | area with substrate ENLYFQL | area with substrate ENLYFQQ | area with substrate ENLYFQR | area with substrate ENLYFQV | area with substrate ENLYFQY | area with substrate ENLYFQT | area with substrate ENLYFQF | area with substrate ENLYFQH | area with substrate ENLYFQN | area with substrate ENLYFQE |
| --- | --- | --- | --- | --- | --- | --- | --- | --- | --- | --- | --- | --- | --- | --- | --- | --- | --- | --- | --- |
| S171R | 0.105 | 0.0467 | 0.0431 | 0.0619 | 0.077 | 0.0926 | 0.043 | – | – | – | – | – | – | – | – | – | – | – | – |
| S171N | – | – | 0.063 | 0.0601 | – | 0.0687 | 0.0533 | 0.0704 | 0.0702 | 0.0454 | 0.0738 | 0.0507 | 0.0548 | 0.0514 | – | – | – | – | – |
| S171W | – | – | – | 0.0683 | 0.0508 | 0.0576 | 0.0528 | 0.0623 | – | – | 0.0631 | 0.0611 | – | 0.0448 | 0.0548 | – | – | – | – |
| E189Q | 0.103 | 0.0806 | – | 0.0925 | 0.0527 | 0.0978 | 0.0661 | – | 0.0825 | 0.0706 | 0.114 | 0.0702 | 0.0513 | – | 0.0702 | 0.088 | – | – | – |
| W212T | 0.0714 | – | 0.0677 | – | 0.029 | 0.089 | 0.0424 | – | – | 0.0585 | – | 0.0626 | 0.0517 | – | 0.0769 | – | 0.094 | – | – |
| W212I | 0.166 | 0.13 | 0.0588 | 0.113 | 0.0996 | 0.137 | – | – | 0.0639 | 0.072 | – | 0.0472 | 0.0608 | – | 0.0644 | – | 0.0999 | 0.105 | – |
| E3K | – | – | 0.0638 | 0.102 | 0.0531 | 0.134 | 0.0792 | 0.0713 | 0.0682 | – | – | 0.0609 | – | 0.0712 | 0.0629 | 0.081 | – | – | – |
| L205P | 0.0734 | 0.0719 | – | 0.049 | 0.0588 | 0.0682 | 0.0461 | 0.0623 | 0.0526 | – | – | 0.0324 | – | – | 0.0517 | – | 0.0643 | 0.0459 | – |
| F187K | – | 0.0424 | – | – | – | 0.0521 | – | 0.0521 | 0.0484 | – | – | 0.0449 | 0.0633 | 0.0342 | 0.0538 | 0.0294 | 0.069 | 0.0531 | – |
| S121N | – | – | 0.0036 | – | – | 0.109 | 0.0666 | 0.0639 | 0.0616 | 0.0528 | – | – | – | 0.079 | – | – | – | 0.0918 | – |
| E231K | 0.0927 | – | – | – | – | 0.108 | – | – | – | – | – | – | – | – | – | – | – | – | – |
| G214I | 0.092 | 0.08 | 0.0614 | 0.0474 | – | 0.08 | – | – | 0.0711 | 0.0376 | 0.0809 | – | – | – | – | – | – | 0.0829 | – |
| V210I | 0.0898 | 0.114 | – | 0.0878 | – | 0.105 | – | – | 0.0653 | 0.0616 | – | – | – | – | – | – | 0.0647 | – | – |
| F101G | – | 0.0521 | – | – | – | 0.0543 | 0.051 | 0.0525 | 0.0646 | – | – | – | – | 0.0719 | 0.0567 | – | 0.0477 | – | – |
| P155T | 0.0738 | 0.0519 | – | – | 0.0534 | 0.063 | – | 0.067 | 0.047 | 0.0498 | – | 0.0498 | 0.0599 | – | 0.0579 | – | – | – | – |
| H215Y | 0.0964 | 0.0665 | – | 0.0622 | – | 0.0775 | 0.0593 | – | 0.0617 | 0.0467 | 0.0533 | – | – | – | 0.0552 | 0.0298 | – | – | – |
| S158C | 0.108 | – | 0.0563 | 0.0848 | – | 0.0946 | 0.0614 | – | 0.0511 | 0.0585 | – | – | – | – | – | 0.0819 | 0.0667 | 0.0757 | – |

| Variant | area with substrate ENLYFQC | area with substrate ENLYFQG | area with substrate ENLYFQI | area with substrate ENLYFQM | area with substrate ENLYFQP | area with substrate ENLYFQS | area with substrate ENLYFQW | area with substrate ENLYFQD | area with substrate ENLYFQK | area with substrate ENLYFQL | area with substrate ENLYFQQ | area with substrate ENLYFQR | area with substrate ENLYFQV | area with substrate ENLYFQY | area with substrate ENLYFQT | area with substrate ENLYFQF | area with substrate ENLYFQH | area with substrate ENLYFQN | area with substrate ENLYFQE |
| --- | --- | --- | --- | --- | --- | --- | --- | --- | --- | --- | --- | --- | --- | --- | --- | --- | --- | --- | --- |
| T119K | – | – | – | – | 0.0801 | 0.106 | 0.0641 | 0.0552 | 0.0578 | 0.0499 | – | 0.0659 | – | – | 0.0673 | – | – | – | – |
| A207F | 0.0911 | – | 0.0552 | 0.0704 | – | 0.0865 | – | – | 0.0637 | 0.0542 | 0.0668 | – | 0.0583 | – | 0.0697 | – | 0.0816 | 0.0708 | – |
| F226L | 0.116 | 0.109 | 0.062 | 0.117 | 0.0622 | 0.11 | – | 0.0604 | 0.0611 | 0.071 | – | 0.0523 | 0.0056 | 0.0853 | – | 0.0569 | 0.0928 | 0.0817 | – |
| F226P | 0.107 | – | – | – | – | 0.1 | 0.0665 | – | – | 0.0499 | – | – | – | – | – | – | – | – | – |
| S209M | 0.114 | 0.0931 | – | 0.064 | 0.0589 | 0.0992 | – | 0.072 | – | 0.0568 | – | 0.0424 | – | – | 0.0586 | – | 0.0756 | – | – |
| T129A | – | 0.0911 | 0.0293 | 0.0887 | 0.072 | 0.092 | 0.0753 | 0.0705 | 0.0704 | – | 0.072 | 0.0309 | – | – | 0.066 | – | – | 0.0757 | – |
| V217M | 0.124 | – | 0.0679 | 0.0813 | – | 0.0956 | 0.0579 | 0.0597 | – | 0.0624 | – | 0.05 | 0.0735 | – | 0.057 | 0.0486 | – | 0.0666 | – |
| K7R | – | 0.108 | 0.0676 | 0.103 | – | 0.106 | – | 0.0593 | – | 0.0752 | – | 0.0527 | – | – | 0.064 | – | 0.073 | – | – |
| V229W | 0.112 | 0.0923 | 0.0705 | 0.0897 | – | 0.0951 | – | 0.067 | 0.0538 | 0.0583 | – | – | 0.0577 | 0.0831 | 0.0479 | 0.0623 | – | 0.0998 | – |
| T233V | 0.101 | – | 0.0691 | – | 0.0616 | 0.101 | 0.0626 | – | 0.0618 | 0.0608 | – | 0.0534 | – | – | – | 0.084 | – | 0.0709 | – |
| T233F | 0.135 | – | 0.0764 | – | – | 0.0925 | 0.0825 | 0.0639 | 0.0768 | 0.0607 | 0.0748 | 0.0519 | 0.0655 | – | 0.058 | 0.0915 | 0.0737 | 0.071 | – |
| T233I | 0.103 | – | 0.0614 | 0.0954 | 0.0526 | 0.0995 | – | – | 0.046 | 0.0423 | 0.0572 | 0.0567 | – | – | – | 0.0746 | 0.113 | 0.0806 | – |
| F65K | – | 0.0889 | 0.052 | 0.0579 | – | 0.101 | 0.0537 | 0.0603 | 0.0733 | 0.0559 | 0.0449 | 0.0652 | 0.0524 | – | – | 0.076 | 0.0646 | 0.0764 | – |
| N206D | 0.126 | – | 0.0667 | 0.128 | – | 0.121 | 0.0852 | 0.0868 | 0.0769 | 0.0631 | – | 0.0617 | 0.06 | 0.108 | 0.0571 | – | – | 0.0846 | 0.0619 |
| N206V | 0.0639 | – | 0.0619 | 0.0634 | 0.0664 | 0.0842 | 0.0239 | 0.0851 | 0.0569 | 0.0526 | – | 0.0603 | 0.0636 | – | – | – | – | 0.0714 | – |
| N206Q | 0.144 | – | 0.0463 | – | – | 0.097 | – | 0.0699 | – | – | – | – | – | – | – | – | 0.0762 | 0.086 | – |
